Reference: the supplement of paper PMC12067230
Single values of this set are uncertain.
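Also: [psi-pin-] Saccharomyces cerevisiae expressing SupN fusions, induced by 100 µM Cu2SO4, selected 7 d at 30 °C without adenine and uracil, scored by deep sequencing of output versus input.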

Assay: amyloid nucleation score relative to library mode (yeast Sup35 reporter selection) (log enrichment difference); higher = more amyloid nucleation; sequences are the first 22 residues of the Bri2 peptide extended by up to 12 random residues
Details: random library (experiment): 1;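 active = nucleation score significantly above 0 at FDR 0.05; inactive = not significantly above 0 or absent from output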
For EASNCFAIRHFENKFAVETLICWYTAWVVESFSG, the amyloid nucleation score was “inactive”. For EASNCFAIRHFENKFAVETLICWYVARCRSSVAW, the amyloid nucleation score was “inactive”. In the case of EASNCFAIRHFENKFAVETLICWYVLGCGSRSER, the amyloid nucleation score is reported as “inactive”. Work on EASNCFAIRHFENKFAVETLICWYVQQGSWWVVG yielded an amyloid nucleation score of -0.392. For EASNCFAIRHFENKFAVETLICWYWAADRATCGV, the amyloid nucleation score was -0.179. For EASNCFAIRHFENKFAVETLICYA, the amyloid nucleation score was “inactive”. EASNCFAIRHFENKFAVETLICYACGSDW showed an amyloid nucleation score of 8.27. With EASNCFAIRHFENKFAVETLICYADGPGADLPIW the amyloid nucleation score was -0.431. In the case of EASNCFAIRHFENKFAVETLICYAFAVPPVSMSL, the amyloid nucleation score is reported as 4.58. With EASNCFAIRHFENKFAVETLICYAFRPVGGRIRH the amyloid nucleation score was “inactive”. EASNCFAIRHFENKFAVETLICYALGVEDGSALM gave an amyloid nucleation score of 4.7. For EASNCFAIRHFENKFAVETLICYALPMDRGDDGQ, the amyloid nucleation score was 0. EASNCFAIRHFENKFAVETLICYANVVRE gave an amyloid nucleation score of 5.73. With EASNCFAIRHFENKFAVETLICYAPSLRQQMAWR the amyloid nucleation score was “inactive”. In the case of EASNCFAIRHFENKFAVETLICYARVSEQEAGRR, the amyloid nucleation score is reported as 2.93. In the case of EASNCFAIRHFENKFAVETLICYASCMR, the amyloid nucleation score is reported as “inactive”. With EASNCFAIRHFENKFAVETLICYATTLMLSLLHV the amyloid nucleation score was “inactive”. In the case of EASNCFAIRHFENKFAVETLICYAVR, the amyloid nucleation score is reported as “inactive”. With EASNCFAIRHFENKFAVETLICYAY the amyloid nucleation score was “inactive”. Sequence EASNCFAIRHFENKFAVETLICYAYK has an amyloid nucleation score of 2.84. With EASNCFAIRHFENKFAVETLICYCAM the amyloid nucleation score was 2.83. For EASNCFAIRHFENKFAVETLICYCDIDIV, the amyloid nucleation score was “inactive”.

Same assay, conditions: random library (experiment): 2
In the case of EASNCFAIRHFENKFAVETLICWYSYLDSSHRFQ, the amyloid nucleation score is reported as “inactive”. For EASNCFAIRHFENKFAVETLICWYTCRYMCKIEH, the amyloid nucleation score was “inactive”. With EASNCFAIRHFENKFAVETLICWYTPQYLWYSVP the amyloid nucleation score was “inactive”. In the case of EASNCFAIRHFENKFAVETLICWYVCREVGFFAN, the amyloid nucleation score is reported as “inactive”. With EASNCFAIRHFENKFAVETLICYAAAIVNKVSV the amyloid nucleation score was “inactive”. In the case of EASNCFAIRHFENKFAVETLICYAAIQRRCILGR, the amyloid nucleation score is reported as “inactive”. In the case of EASNCFAIRHFENKFAVETLICYAFSVTVSIIV, the amyloid nucleation score is reported as “inactive”. For EASNCFAIRHFENKFAVETLICYALALNCLTIYP, the amyloid nucleation score was “inactive”. With EASNCFAIRHFENKFAVETLICYALFYQLKFIWS the amyloid nucleation score was “inactive”. EASNCFAIRHFENKFAVETLICYALGHLTLHFGS showed an amyloid nucleation score of 3.03. With EASNCFAIRHFENKFAVETLICYALHSMQINMLG the amyloid nucleation score was “inactive”. EASNCFAIRHFENKFAVETLICYAVGWCSAASPT gave an amyloid nucleation score of 3.02. With EASNCFAIRHFENKFAVETLICYAVKWTSFCRHR the amyloid nucleation score was “inactive”. In the case of EASNCFAIRHFENKFAVETLICYAVRIDRRATC, the amyloid nucleation score is reported as “inactive”. For EASNCFAIRHFENKFAVETLICYAYWHFNRVTRW, the amyloid nucleation score was 0.528. In the case of EASNCFAIRHFENKFAVETLICYCAECRVFKCRY, the amyloid nucleation score is reported as “inactive”. For EASNCFAIRHFENKFAVETLICYCDWYAGRTCLG, the amyloid nucleation score was 4.2.

Same assay, conditions: random library (experiment): 3
With EASNCFAIRHFENKFAVETLICWYTHLPNRDVLC the amyloid nucleation score was “inactive”. EASNCFAIRHFENKFAVETLICYACKNTGNCSLS showed an amyloid nucleation score of 8.81. In the case of EASNCFAIRHFENKFAVETLICYADSVGLPSSSR, the amyloid nucleation score is reported as 2.58. With EASNCFAIRHFENKFAVETLICYAGLRHGFLGRQ the amyloid nucleation score was 5.68. With EASNCFAIRHFENKFAVETLICYAPWIEA the amyloid nucleation score was “inactive”. With EASNCFAIRHFENKFAVETLICYAR the amyloid nucleation score was “inactive”. Work on EASNCFAIRHFENKFAVETLICYAVFGHCDVMRW yielded an amyloid nucleation score of 6.43. EASNCFAIRHFENKFAVETLICYAVNVDHNLVER gave an amyloid nucleation score of 7.62. For EASNCFAIRHFENKFAVETLICYAYSGSILDLHG, the amyloid nucleation score was 2.83.
